# According to the supplement of paper PMC11417369:
# The other results are listed elsewhere or left out.
# System: PfSIP2 AP2 domain 1 (GST-tagged)
# Assay: gcPBM binding intensity (ln(normalized median fluorescence intensity)); higher = stronger DNA binding
# Outline: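 An Agilent 4 × 180k array carrying primer-extended double-stranded 36-bp intergenic genomic probes and negative controls received GST-tagged P. falciparum DNA-binding domains expressed in E. coli, about 25 μg on average, for 1 h. The binding buffer contained 1× PBS, 1% milk, 0.2 mg/ml BSA, 0.5% salmon testes DNA and 0.03% Triton X-100. Binding intensity is the top Masliner-normalised natural-log median intensity across replicate spots of either probe orientation, read after Alexa488 anti-GST antibody staining and a 488 nm scan.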
row,Sequence,gcPBM binding intensity (ln)
1,GAAGGAAATAAATCAACACACATATATTATAGATAT [CACACA_site7095],6.69
2,ATAATGTAAAATAAATGTACGCAATATATAAAAAAT [XGTACX_site5747],7.26
3,TATTATGTTTATTAAACATGCATATATTTATTTATA [TGCATGCA_site187],6.88
4,ATATTTTATCATGTTTAATATTTATGTGGACATAAA [GTGCAC_negctrl_site275],6.98
5,ACATTTTATATATGTAGTACATATTATAGATAATTT [XGTACX_site1976],7.24
6,AGTTGGATACGAAGATGTACAATAATAATAATTAAG [XGTACX_site3561],7.16
7,ATCAAAAACATACCTACACACACAATATGTATATAT [CACACA_site9171],7.05
8,TATTTTATTTTTTTATGTACACAAAAAAAAAAAAAA [XGTACX_site945],7.35
9,TCACTATAATAATTTACACACATTTTAAGAAAATGG [CACACA_site5867],6.95
10,GCTTATTAATATCATACACACATAGATATATTTATA [CACACA_site3104],7.21
11,AATATATAAATGTTGTGTACTAAGCAATATATTTTA [XGTACX_site2483],6.94
12,ATTCGTCACATTTTTTGATATATATATATATATATA [CACACA_negctrl_site1785],9.68
13,TAAAAAATATAAACTGCACACACACTAATAAAGAAA [CACACA_site8119],7.37
14,ATATAGTTGTCATATTGTACACTTTAGGGTTGGTTA [XGTACX_site7339],6.81
15,CTATTATCGGTTCCTACACACAAATATATATGTCTA [CACACA_site3579],7.29
16,TACAATCCATATTGTTGTACATTTATAAAATTTACA [XGTACX_site3053],6.89
17,CAATGGTACATACATACACACACACTAATAAAAAAA [CACACA_site8450],7.02
18,GTATATATATAAGAAGAAATATATAAATAAAATATA [CACACA_negctrl_site503],6.96
19,AAGATATGAACATTTTGTACTTAAAAATTCAATATT [XGTACX_site7103],6.87
20,CACAGACACGGACACACACACATATATAATATATAT [CACACA_site4495],7.3
21,GATTATACAAAATATACACACGTGTACAGAAATATT [CACACA_site8305],7.09
22,ATATATTTATTTATATGTACATATTATATATTATAG [XGTACX_site3371],7.07
23,TTATATTAATTTTGTTGTACTATTTGTGCATTAAAT [XGTACX_site4790],7.42
24,TTTATATAAAATTATTGTACAGTTTTAATATTTTAA [XGTACX_site6807],6.98
